# The other results are listed elsewhere or left out.
# B1: Epa1-NP-mutant-Y228W (Candida glabrata), Q6VBJ0 (protein)
# chain: MILNPALFLNKCVCIYTTLILLLLTNGGYATSSNDISLASKDPTTFPLGCSPDITTPKKGLSMELYSYDFRKKGSYPCWDAAYLDPNYPRTGYKSHRLLAKVDGVTGNINFYYHATKGCTPQLGHLPASYNYPKPLTMTNFTMLLYGYFRPKVTGFHTFTISADDLLFVNFGAGNAFDCCRRDSSADHFGNYQAYAIWGSKTAKDELTVHLDAGVYYPIRLFYNNREWDGALSFTFKTESNENTVSDFSEYFFSLDDTEEGCPGLISYDSSCASVKTSKIIGIDYHTETPNENLVPITKTIYHLGIPCTGTTTTPLCGSGFYDPLANKCVTINTSSTSSVTKTTSHTTSKEVSFHSSISSQKTLIPKSIPSPYGPIKSQSIPTEMETSSEISSSEYAFSDVISTPSHSPYTKKHSSLNSSSYTSTVIHSLTSYSISQGIFSTSLSEQNITSKSSTDKFSTATSMSNNITQSSIIISQFSTNNENYTTTSMHTSSDKISTETLNNSISTTTSILFSNSSTILKNNTTIISSDKDTHYHPVNPTIVCSTNKTEIICASITQPSISNSNNHWSSSVLKFNSTTVRSTLPSSAGSNETSINVPFSSSTESNTSTSSTSTSNSKMVRSTLPSSAGSNETSISVPFSSSTESNTSTSSTSTSNSKMVRSTLPSSAGSNETSINVPFSSSTESNTSTSSTSTSNSKTVRSTPFSSAGIIMTSLSQRNNKSASSYASSNSKCYNTADSCRKVHSTPSYLLTSSYTSEGVDYDCSLVSTKLKINDTNCVNNKHTTKSCLKTSVTTTIPTLEIKTARKSSSNTIGLHSYPTSSPNKSISSAPIIGYISSFKTIKTASPSYQTSDLTTITTITSLNNPGSTAVENTHESNDKSRKTSSNDISSKHSVIKETKDAVESSNKSHQTNTLKCSSIIIASSSHNSYESLGGTTLTLTLSKVYSPQNNDTLPFLEISEVNPSRTVLPESSKMMQYLTSTEERNKTARNTIATNIVSISTFHFEGEGNAIRMGYTQLLLMLIGIIVMNIGT
# Assays:
# Assay in all cases: glycan array binding signal (z-score within array); higher = stronger binding
# Details in all cases: glycan notation: IUPAC condensed, linker removed; mutation: Y228W
# [1] = target: Neu5Ac(a2-3)Gal(b1-4)GlcNAc(b1-3)[Neu5Ac(a2-3)Gal(b1-4)GlcNAc(b1-6)]GalNAc
# In short: (§1)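 Arrays were curated from the Consortium for Functional Glycomics database, 3228 in total, and kept only where the protein sequence was available. Binding is expressed as a within-array Z-score. This score was averaged across arrays of the same protein sequence at different concentrations or buffers and across linkers, and negative values can be read as non-binding.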
# [2] = target: Neu5Ac(a2-3)Gal(b1-4)GlcNAc(b1-6)GalNAc
# In short: as §1
# [3] = target: Neu5Ac(a2-3)Gal(b1-4)GlcNAc(b1-6)[Gal(b1-3)]GalNAc
# In short: as §1
# [4] = target: Neu5Ac(a2-3)Gal(b1-4)GlcNAc(b1-6)[Neu5Ac(a2-3)Gal(b1-3)]GalNAc
# In short: as §1
# [5] = target: Neu5Ac(a2-3)Gal(b1-4)GlcNAc6S
# In short: as §1
# [6] = target: Neu5Ac(a2-3)Gal(b1-4)[Fuc(a1-3)]GlcNAc
# In short: as §1
# [7] = target: Neu5Ac(a2-3)Gal(b1-4)[Fuc(a1-3)]GlcNAc(b1-2)Man
# In short: as §1
# [8] = target: Neu5Ac(a2-3)Gal(b1-4)[Fuc(a1-3)]GlcNAc(b1-3)Gal
# In short: as §1
# [9] = target: Neu5Ac(a2-3)Gal(b1-4)[Fuc(a1-3)]GlcNAc(b1-3)Gal(b1-4)GlcNAc
# In short: as §1
# [10] = target: Neu5Ac(a2-3)Gal(b1-4)[Fuc(a1-3)]GlcNAc(b1-3)Gal(b1-4)[Fuc(a1-3)]GlcNAc(b1-3)Gal(b1-4)[Fuc(a1-3)]GlcNAc
# In short: as §1
# [11] = target: Neu5Ac(a2-3)Gal(b1-4)[Fuc(a1-3)]GlcNAc(b1-3)GalNAc
# In short: as §1
# [12] = target: Neu5Ac(a2-3)Gal(b1-4)[Fuc(a1-3)]GlcNAc(b1-6)[Gal(b1-3)]GalNAc
# In short: as §1
# [13] = target: Neu5Ac(a2-3)Gal(b1-4)[Fuc(a1-3)]GlcNAc(b1-6)[Neu5Ac(a2-3)Gal(b1-3)]GalNAc
# In short: as §1
# [14] = target: Neu5Ac(a2-3)Gal(b1-4)[Fuc(a1-3)]GlcNAc6S
# In short: as §1
# [15] = target: Neu5Ac(a2-3)Gal6S(b1-4)GlcNAc
# In short: as §1
# [16] = target: Neu5Ac(a2-3)Gal6S(b1-4)[Fuc(a1-3)]GlcNAc
# In short: as §1
# Neu5Ac(a2-3)GalNAc = target: Neu5Ac(a2-3)GalNAc
# In short: as §1
# [17] = target: Neu5Ac(a2-3)GalNAc(b1-4)GlcNAc
# In short: as §1
# [18] = target: Neu5Ac(a2-3)[GalNAc(b1-4)]Gal(b1-4)Glc
# In short: as §1
# [19] = target: Neu5Ac(a2-3)[GalNAc(b1-4)]Gal(b1-4)GlcNAc
# In short: as §1
# [20] = target: Neu5Ac(a2-3)[GalNAc(b1-4)]Gal(b1-4)GlcNAc(b1-3)GalNAc
# In short: as §1
# [21] = target: Neu5Ac(a2-3)[Neu5Ac(a2-6)]GalNAc
# In short: as §1
# Neu5Ac(a2-6)Gal = target: Neu5Ac(a2-6)Gal
# In short: as §1
# [22] = target: Neu5Ac(a2-6)Gal(b1-3)GlcNAc(b1-3)[Gal(b1-4)GlcNAc(b1-6)]Gal(b1-4)Glc
# In short: as §1
# Neu5Ac(a2-6)Gal(b1-4)Glc = target: Neu5Ac(a2-6)Gal(b1-4)Glc
# In short: as §1
# [23] = target: Neu5Ac(a2-6)Gal(b1-4)GlcNAc
# In short: as §1
# [24] = target: Neu5Ac(a2-6)Gal(b1-4)GlcNAc(b1-2)Man
# In short: as §1
# [25] = target: Neu5Ac(a2-6)Gal(b1-4)GlcNAc(b1-2)Man(a1-3)Man(b1-4)GlcNAc(b1-4)GlcNAc
# In short: as §1
# [26] = target: Neu5Ac(a2-6)Gal(b1-4)GlcNAc(b1-2)Man(a1-3)[Gal(b1-4)GlcNAc(b1-2)Man(a1-6)]Man(b1-4)GlcNAc(b1-4)GlcNAc
# In short: as §1
# [27] = target: Neu5Ac(a2-6)Gal(b1-4)GlcNAc(b1-2)Man(a1-3)[GlcNAc(b1-2)Man(a1-6)]Man(b1-4)GlcNAc(b1-4)GlcNAc
# In short: as §1
binder,measurement,setting,value
B1,glycan array binding signal (z-score),[1],-0.316
same,glycan array binding signal (z-score),[2],-0.066
same,glycan array binding signal (z-score),[3],0.589
same,glycan array binding signal (z-score),[4],-0.277
same,glycan array binding signal (z-score),[5],-0.107
same,glycan array binding signal (z-score),[6],-0.259
same,glycan array binding signal (z-score),[7],-0.422
same,glycan array binding signal (z-score),[8],-0.343
same,glycan array binding signal (z-score),[9],-0.028
same,glycan array binding signal (z-score),[10],-0.222
same,glycan array binding signal (z-score),[11],0.359
same,glycan array binding signal (z-score),[12],0.153
same,glycan array binding signal (z-score),[13],0.067
same,glycan array binding signal (z-score),[14],-0.314
same,glycan array binding signal (z-score),[15],-0.251
same,glycan array binding signal (z-score),[16],-0.378
same,glycan array binding signal (z-score),Neu5Ac(a2-3)GalNAc,-0.044
same,glycan array binding signal (z-score),[17],-0.172
same,glycan array binding signal (z-score),[18],-0.236
same,glycan array binding signal (z-score),[19],-0.228
same,glycan array binding signal (z-score),[20],-0.218
same,glycan array binding signal (z-score),[21],-0.195
same,glycan array binding signal (z-score),Neu5Ac(a2-6)Gal,-0.203
same,glycan array binding signal (z-score),[22],-0.113
same,glycan array binding signal (z-score),Neu5Ac(a2-6)Gal(b1-4)Glc,-0.162
same,glycan array binding signal (z-score),[23],-0.054
same,glycan array binding signal (z-score),[24],0.041
same,glycan array binding signal (z-score),[25],-0.018
same,glycan array binding signal (z-score),[26],-0.285
same,glycan array binding signal (z-score),[27],-0.017

# — the supplement of paper PMC8728848
